{
  "source": "ChEMBL document CHEMBL4888484",
  "about": "“Replenishing the malaria drug discovery pipeline: Screening and hit evaluation of the MMV Hit Generation Library 1 (HGL1) against asexual blood stage Plasmodium falciparum ,using a nano luciferase reporter read-out” (2022)",
  "note": "Out of some 4,800 compounds screened, about 410 (8.5%) showed an effect of 50% or more. The list shows a part of the results.",
  "data": [
    {"tested_on": "Plasmodium falciparum", "assay": "Confirmatory screen in NF54 pLDH assay, in single point, at 2uM, 72h", "assay_type": "functional, Erythrocyte", "conditions": "timepoint 72 hour", "units": {"% Inhibition": "%"}, "values": [
      {"smiles": "CN1CC(c2ccccc2Cl)C2(COc3ccccc3C2=O)C12C(=O)Nc1ccccc12", "note": "(stereo unspecified)", "% Inhibition": 14},
      {"smiles": "C[C@H]1Cc2cc(C(=O)NCc3nc(C(F)(F)F)n[nH]3)ccc2O1", "% Inhibition": 10},
      {"smiles": "O=S(=O)(Nc1cccc(-c2nnc3n2CCC3)c1)c1ccc2c(c1)OCCCO2", "% Inhibition": -8},
      {"smiles": "O=c1[nH]c(N2CCCC2)nc2ccccc12", "% Inhibition": -1},
      {"smiles": "Cc1ccc(Oc2cc(C#N)c(C#N)cc2N2CCOCC2)cc1C", "% Inhibition": -9},
      {"smiles": "CC[n+]1ccc(-c2ncc(-c3ccc(C(C)(C)C)cc3)o2)cc1", "% Inhibition": 55},
      {"smiles": "CC(C)(C)NC(=O)c1ncc(Br)cc1Br", "% Inhibition": 5},
      {"smiles": "COc1ccc(NC(=O)Cn2c(C(F)(F)F)nc3cc4c(cc32)OCCCO4)cc1", "% Inhibition": 10},
      {"smiles": "Nc1c(Br)cc(Br)c(Cl)c1Cl", "% Inhibition": -15},
      {"smiles": "NC(=O)c1ccc(COc2ccc3c(c2)CCC3=O)cc1", "% Inhibition": 13},
      {"smiles": "Cc1cc(S(=O)(=O)NC(=O)c2ccnc(C3CCCC3)n2)c(C)s1", "% Inhibition": 0},
      {"smiles": "CC(C)(C)[C@H]1CCc2c(sc(NC(=O)C3(F)C(F)(F)C(F)(F)C(F)(F)C(F)(F)C3(F)F)c2C#N)C1", "% Inhibition": 51},
      {"smiles": "COCc1nsc(N2CCC(c3ccccc3)CC2C)n1", "note": "(stereo unspecified)", "% Inhibition": 6},
      {"smiles": "O=C(C1CCN(c2cncc3nnnn23)CC1)N1CCC(c2ccccc2)CC1", "% Inhibition": 7},
      {"smiles": "N#CC1(CNC(=O)CNC(=O)C2C3CCCCC32)CC1", "note": "(stereo unspecified)", "% Inhibition": 6},
      {"smiles": "O=c1[nH]c2nc(N3CCC(N4CCCCC4)CC3)ncc2c(=O)n1-c1ccc2c(c1)OCO2", "% Inhibition": -18},
      {"smiles": "CCc1ccc2ncc(C(=O)c3ccc(Cl)cc3)c(O)c2c1", "% Inhibition": 1},
      {"smiles": "COc1cccc(S(=O)(=O)N2CCC(OCCOCc3ccccc3)CC2)c1", "% Inhibition": 10},
      {"smiles": "CCN(C(=O)[C@H]1CCN(C)[C@@H](C)C1)C1CCCC1", "% Inhibition": 11},
      {"smiles": "OC1CCC2CN(c3ncc(Cl)c(N4CC5CCC(O)C5C4)n3)CC12", "note": "(stereo unspecified)", "% Inhibition": 4},
      {"smiles": "CCc1nnc2ccc(S(=O)(=O)Nc3cc(F)cc(F)c3)cn12", "% Inhibition": -5},
      {"smiles": "CC(=O)Nc1ccc(-c2cn3c4ccccc4ccc3[n+]2C)cc1", "% Inhibition": 67},
      {"smiles": "CC(C)(C)OC(=O)N1CCc2ncn(Cc3ccc(F)cc3)c(=O)c2C1", "% Inhibition": -2},
      {"smiles": "O=C(Nc1nccs1)N1CC(O)CC1CO", "note": "(stereo unspecified)", "% Inhibition": -11},
      {"smiles": "Cc1c(-c2ccccc2OC(=O)c2ccccc2)cnn1-c1ccccc1", "% Inhibition": 2},
      {"smiles": "CC[C@@H](CO)NC(=O)Nc1ccc(Cl)cc1", "% Inhibition": 7},
      {"smiles": "CN(C)CCN(C)c1ccc(Br)cc1NCc1cncn1C", "% Inhibition": 39},
      {"smiles": "CS(=O)(=O)N1CC[C@H](CC(=O)Nc2ccccc2)C1", "% Inhibition": -11},
      {"smiles": "CCCN1CCN(CC(=O)Nc2sccc2C#N)c2cc(F)ccc21", "% Inhibition": 12},
      {"smiles": "CCOC(=O)CCn1cc(F)c(=O)[nH]c1=O", "% Inhibition": 66},
      {"smiles": "Cc1cccc(NC(=O)C(=O)N(C)[C@H]2CCCc3c2cnn3C)c1F", "% Inhibition": -12},
      {"smiles": "Cc1ccc(S(=O)(=O)N2CCN(C(=O)c3cc(C4CC4)nc4c3c(C)nn4C(C)C)CC2)cc1", "% Inhibition": 13},
      {"smiles": "Cc1ccccc1CNC(=O)[C@H]1CCCN(c2nc3ccccc3[nH]c2=O)C1", "% Inhibition": 13},
      {"smiles": "COc1ccc(CC(=O)N2N=C(C)C[C@]2(O)c2cccnc2)cc1", "% Inhibition": 2},
      {"smiles": "CC(CNC(=O)NCC(O)C1CC1)c1ccc(F)c(F)c1", "note": "(stereo unspecified)", "% Inhibition": 10},
      {"smiles": "CCS(=O)(=O)N1CCN(c2c(C)n(-c3ccccc3)c(=O)n(C)c2=O)CC1", "% Inhibition": 6},
      {"smiles": "Cc1ccc(-c2c[n+](-c3ccc(OC(F)F)cc3)c3n2CCCCC3)cc1", "% Inhibition": 60},
      {"smiles": "CC(C)N(CC(=O)Nc1nccs1)Cc1ccccn1", "% Inhibition": 59},
      {"smiles": "O=S(=O)(c1ccc(Br)cc1)n1ccc(C2CC2)n1", "% Inhibition": 8},
      {"smiles": "COc1ccc(S(=O)(=O)Nc2c(C)ccc3nsnc23)cc1OC", "% Inhibition": 9},
      {"smiles": "CC1(C)CCC[C@@H]1NCc1nccc(N)n1", "% Inhibition": 9},
      {"smiles": "C[n+]1ccc(-c2ncc(-c3ccccc3)o2)c2ccccc21", "% Inhibition": 62},
      {"smiles": "CN(Cc1ccccc1)C(=O)C[C@H]1CCN(C(=O)NC2CCCC2)C1", "% Inhibition": 2},
      {"smiles": "O=C(O)C1CC=CCC1C(=O)N1CCCCCC1", "note": "(stereo unspecified)", "% Inhibition": 10},
      {"smiles": "CC(C)N(C)S(=O)(=O)Nc1ccc(Br)cc1O", "% Inhibition": 9},
      {"smiles": "O=C(c1cc(-c2ccco2)n[nH]1)N1CCC(N2CCC(Oc3ccccc3F)CC2)CC1", "% Inhibition": 45},
      {"smiles": "O=C(Cc1c[nH]c2ccccc12)Nc1ccc(Cl)c2ncccc12", "% Inhibition": 6},
      {"smiles": "CC[C@](C)(NCCc1c[nH]c2ccccc12)c1nnnn1CCOC", "% Inhibition": 13},
      {"smiles": "CCC1CN2CCCC2CN1C(=O)Nc1nc2ccccc2s1", "note": "(stereo unspecified)", "% Inhibition": 6},
      {"smiles": "O=C(Nc1ccc(N2CCn3c(nc4ccccc43)C2)cc1)c1ccc(F)cc1", "% Inhibition": 14},
      {"smiles": "Cn1c(N2CCC[C@H]2c2ccc3c(c2)OCCCO3)c(C#N)c(=O)n(C)c1=O", "% Inhibition": 8},
      {"smiles": "Cc1ccc(C)c(-n2cnc(=O)n2[C@H]2CCN(C3CC3)C2=O)c1", "% Inhibition": 51},
      {"smiles": "CC1CN(c2nc(-c3ccccc3)nnc2-c2ccccc2)CC(C)O1", "note": "(stereo unspecified)", "% Inhibition": 9},
      {"smiles": "Cc1cc(C)c(C)c(S(=O)(=O)N2CCn3c(nnc3[C@H]3CCN(C(C)C)C3)C2)c1C", "% Inhibition": 12},
      {"smiles": "CCCNCc1cc(Cl)ccc1OC", "% Inhibition": -6},
      {"smiles": "CCS(=O)(=O)c1ccc(N2CC[C@H](C(N)=O)C2)cc1", "% Inhibition": 3},
      {"smiles": "Cc1cccc(CNc2cc([C@H]3C[C@@H](N)C3)nc(N3CCCC3)n2)c1", "% Inhibition": 14},
      {"smiles": "COc1ccccc1N(CC(=O)NCCN1CCOCC1)S(=O)(=O)c1ccc(C)cc1", "% Inhibition": 7},
      {"smiles": "CN(C)c1cccc(C(=O)N2CCN(c3ncc(F)cn3)C(=O)C2)c1", "% Inhibition": 10},
      {"smiles": "CCc1c(C)nn(-c2nncn2N)c1C", "% Inhibition": -2},
      {"smiles": "CCOC(=O)c1cn([C@H]2CC(=O)N(c3ccccc3)C2=O)nn1", "% Inhibition": 10},
      {"smiles": "Cc1nc2ccnn2cc1C(=O)Nc1ccc(CCC(C)C)cn1", "% Inhibition": 6},
      {"smiles": "CCc1ccc(O[C@@H](C)C(=O)OC)c(COc2ccc(-n3c(=O)cc(C(F)(F)F)n(C)c3=O)cc2)c1", "% Inhibition": 12},
      {"smiles": "O=C(NCCN1CCCCC1)c1n[nH]c2c1CCc1ccccc1-2", "% Inhibition": 5},
      {"smiles": "CNC(=O)[C@@H](NC(=O)CNC(=O)c1ccc(Cl)cc1)C(C)(C)C", "% Inhibition": 7},
      {"smiles": "COc1ccccc1OCC(=O)Nc1ccccc1-n1cnnc1C", "% Inhibition": 12},
      {"smiles": "Cc1nc2cc(-c3ccc(Cl)c(Cl)c3)nn2c(N)c1-c1ccccc1", "% Inhibition": 0},
      {"smiles": "CN(C(=O)C(C)(C)Nc1ncc(C(F)(F)F)cc1Cl)c1ccc(Cl)cc1", "% Inhibition": 14},
      {"smiles": "c1cc(-c2noc(C3CC3)n2)nc(N2CCNCC2)n1", "% Inhibition": -4},
      {"smiles": "Cc1oc(=S)n2c1C[C@@H](c1ccccc1)N(Cc1ccccc1)C2", "% Inhibition": -10},
      {"smiles": "COc1cccc(CC(=O)N2CCC[C@@]3(C2)Nc2ccccc2N=C3NC(C)(C)C)c1", "% Inhibition": -15},
      {"smiles": "CC[C@H]1Cn2c(C(=O)NCc3ccc(C)cc3)cc3c(Cl)ccc(c32)O1", "% Inhibition": -8},
      {"smiles": "Cc1nnc2ccc(S(=O)(=O)N(CC#N)c3ccccc3)cn12", "% Inhibition": 10},
      {"smiles": "C[C@@]1(C(=O)NCc2ccccc2)Cn2nc(-c3ccccc3)cc2C(=O)N1c1ccc2c(c1)OCCO2", "% Inhibition": 36},
      {"smiles": "CCc1sc(NC(=O)CC#N)nc1-c1ccc(Cc2ccccc2)cc1", "% Inhibition": -4},
      {"smiles": "CCC(=O)N1CC[C@H](N(C(C)=O)C2CCOCC2)C1", "% Inhibition": -11}
    ]}
  ]
}
